# Experimental data reported in the supplement of paper PMC8728848.
# This is one part of the list.
# B1: Strep tagII-anxA1 (Homo sapiens), P04083 (protein)
# chain: MAMVSEFLKQAWFIENEEQEYVQTVKSSKGGPGSAVSPYPTFNPSSDVAALHKAIMVKGVDEATIIDILTKRNNAQRQQIKAAYLQETGKPLDETLKKALTGHLEEVVLALLKTPAQFDADELRAAMKGLGTDEDTLIEILASRTNKEIRDINRVYREELKRDLAKDITSDTSGDFRNALLSLAKGDRSEDFGVNEDLADSDARALYEAGERRKGTDVNVFNTILTTRSYPQLRRVFQKYTKYSKHDMNKVLDLELKGDIEKCLTAIVKCATSKPAFFAEKLHQAMKGVGTRHKALIRIMVSRSEIDMNDIKAFYQKMYGISLCQAILDETKGDYEKILVALCGGN
# Experiments:
# Experiment in all cases: glycan array binding signal (z-score within array); higher = stronger binding
# Settings in all cases: glycan notation: IUPAC condensed, linker removed
# [1] = molecular target: Neu5Ac(a2-3)Gal6S(b1-4)[Fuc(a1-3)]GlcNAc
# Summary of the method: (§1)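 The binding signal is a Z-score computed within each array and averaged over linkers. Arrays of the same protein sequence at different concentrations or buffers were also averaged together. Data originate from 3228 arrays in the Consortium for Functional Glycomics database, kept only where the protein sequence was available.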
# [2] = molecular target: Neu5Ac(a2-3)GalNAc
# Summary of the method: as §1
# [3] = molecular target: Neu5Ac(a2-3)GalNAc(b1-4)GlcNAc
# Summary of the method: as §1
# [4] = molecular target: Neu5Ac(a2-3)[GalNAc(b1-4)]Gal(b1-4)Glc
# Summary of the method: as §1
# [5] = molecular target: Neu5Ac(a2-3)[GalNAc(b1-4)]Gal(b1-4)GlcNAc
# Summary of the method: as §1
# [6] = molecular target: Neu5Ac(a2-3)[GalNAc(b1-4)]Gal(b1-4)GlcNAc(b1-3)GalNAc
# Summary of the method: as §1
# [7] = molecular target: Neu5Ac(a2-3)[Neu5Ac(a2-6)]GalNAc
# Summary of the method: as §1
# [8] = molecular target: Neu5Ac(a2-6)Gal
# Summary of the method: as §1
# [9] = molecular target: Neu5Ac(a2-6)Gal(b1-3)GlcNAc(b1-3)[Gal(b1-4)GlcNAc(b1-6)]Gal(b1-4)Glc
# Summary of the method: as §1
# [10] = molecular target: Neu5Ac(a2-6)Gal(b1-4)Glc
# Summary of the method: as §1
# [11] = molecular target: Neu5Ac(a2-6)Gal(b1-4)GlcNAc
# Summary of the method: as §1
# [12] = molecular target: Neu5Ac(a2-6)Gal(b1-4)GlcNAc(b1-2)Man(a1-3)Man(b1-4)GlcNAc(b1-4)GlcNAc
# Summary of the method: as §1
# [13] = molecular target: Neu5Ac(a2-6)Gal(b1-4)GlcNAc(b1-2)Man(a1-3)[Gal(b1-4)GlcNAc(b1-2)Man(a1-6)]Man(b1-4)GlcNAc(b1-4)GlcNAc
# Summary of the method: as §1
# [14] = molecular target: Neu5Ac(a2-6)Gal(b1-4)GlcNAc(b1-2)Man(a1-3)[GlcNAc(b1-2)Man(a1-6)]Man(b1-4)GlcNAc(b1-4)GlcNAc
# Summary of the method: as §1
# [15] = molecular target: Neu5Ac(a2-6)Gal(b1-4)GlcNAc(b1-2)Man(a1-3)[GlcNAc(b1-2)Man(b1-4)GlcNAc(b1-2)Man(a1-6)]Man(b1-4)GlcNAc(b1-4)GlcNAc
# Summary of the method: as §1
# [16] = molecular target: Neu5Ac(a2-6)Gal(b1-4)GlcNAc(b1-2)Man(a1-3)[Man(a1-6)]Man(b1-4)GlcNAc(b1-4)GlcNAc
# Summary of the method: as §1
# [17] = molecular target: Neu5Ac(a2-6)Gal(b1-4)GlcNAc(b1-2)Man(a1-3)[Neu5Ac(a2-6)Gal(b1-4)GlcNAc(b1-2)Man(a1-6)]Man(b1-4)GlcNAc(b1-4)GlcNAc
# Summary of the method: as §1
# [18] = molecular target: Neu5Ac(a2-6)Gal(b1-4)GlcNAc(b1-2)Man(a1-3)[Neu5Ac(a2-6)Gal(b1-4)GlcNAc(b1-2)Man(a1-6)]Man(b1-4)GlcNAc(b1-4)[Fuc(a1-6)]GlcNAc
# Summary of the method: as §1
# [19] = molecular target: Neu5Ac(a2-6)Gal(b1-4)GlcNAc(b1-2)Man(a1-6)Man(b1-4)GlcNAc(b1-4)GlcNAc
# Summary of the method: as §1
# [20] = molecular target: Neu5Ac(a2-6)Gal(b1-4)GlcNAc(b1-2)Man(a1-6)[Gal(b1-4)GlcNAc(b1-2)Man(a1-3)]Man(b1-4)GlcNAc(b1-4)GlcNAc
# Summary of the method: as §1
# [21] = molecular target: Neu5Ac(a2-6)Gal(b1-4)GlcNAc(b1-2)Man(a1-6)[GlcNAc(b1-2)Man(a1-3)]Man(b1-4)GlcNAc(b1-4)GlcNAc
# Summary of the method: as §1
# [22] = molecular target: Neu5Ac(a2-6)Gal(b1-4)GlcNAc(b1-2)Man(a1-6)[Man(a1-3)]Man(b1-4)GlcNAc(b1-4)GlcNAc
# Summary of the method: as §1
# [23] = molecular target: Neu5Ac(a2-6)Gal(b1-4)GlcNAc(b1-3)Gal(b1-3)GlcNAc
# Summary of the method: as §1
# [24] = molecular target: Neu5Ac(a2-6)Gal(b1-4)GlcNAc(b1-3)Gal(b1-4)GlcNAc
# Summary of the method: as §1
# [25] = molecular target: Neu5Ac(a2-6)Gal(b1-4)GlcNAc(b1-3)Gal(b1-4)GlcNAc(b1-3)Gal(b1-4)GlcNAc
# Summary of the method: as §1
# [26] = molecular target: Neu5Ac(a2-6)Gal(b1-4)GlcNAc(b1-3)Gal(b1-4)[Fuc(a1-3)]GlcNAc(b1-3)Gal(b1-4)[Fuc(a1-3)]GlcNAc
# Summary of the method: as §1
# [27] = molecular target: Neu5Ac(a2-6)Gal(b1-4)GlcNAc(b1-3)GalNAc
# Summary of the method: as §1
# [28] = molecular target: Neu5Ac(a2-6)Gal(b1-4)GlcNAc(b1-3)[Neu5Ac(a2-6)Gal(b1-4)GlcNAc(b1-6)]GalNAc
# Summary of the method: as §1
# [29] = molecular target: Neu5Ac(a2-6)Gal(b1-4)GlcNAc(b1-6)GalNAc
# Summary of the method: as §1
# [30] = molecular target: Neu5Ac(a2-6)Gal(b1-4)GlcNAc(b1-6)[Gal(b1-3)GlcNAc(b1-3)]Gal(b1-4)Glc
# Summary of the method: as §1
# [31] = molecular target: Neu5Ac(a2-6)Gal(b1-4)GlcNAc6S
# Summary of the method: as §1
# [32] = molecular target: Neu5Ac(a2-6)GalNAc
# Summary of the method: as §1
# [33] = molecular target: Neu5Ac(a2-6)GalNAc(b1-4)GlcNAc
# Summary of the method: as §1
# [34] = molecular target: Neu5Ac(a2-6)GalNAc(b1-4)GlcNAc6S
# Summary of the method: as §1
# [35] = molecular target: Neu5Ac(a2-6)GlcNAc(b1-4)GlcNAc
# Summary of the method: as §1
# [36] = molecular target: Neu5Ac(a2-6)GlcNAc(b1-4)GlcNAc(b1-4)GlcNAc
# Summary of the method: as §1
# [37] = molecular target: Neu5Ac(a2-8)Neu5Ac
# Summary of the method: as §1
# [38] = molecular target: Neu5Ac(a2-8)Neu5Ac(a2-3)Gal(b1-3)GalNAc(b1-4)[Neu5Ac(a2-8)Neu5Ac(a2-3)]Gal(b1-4)Glc
# Summary of the method: as §1
# [39] = molecular target: Neu5Ac(a2-8)Neu5Ac(a2-3)Gal(b1-4)Glc
# Summary of the method: as §1
# [40] = molecular target: Neu5Ac(a2-8)Neu5Ac(a2-3)[Gal(b1-3)GalNAc(b1-4)]Gal(b1-4)Glc
# Summary of the method: as §1
# [41] = molecular target: Neu5Ac(a2-8)Neu5Ac(a2-3)[GalNAc(b1-4)]Gal(b1-4)Glc
# Summary of the method: as §1
# [42] = molecular target: Neu5Ac(a2-8)Neu5Ac(a2-8)Neu5Ac
# Summary of the method: as §1
# [43] = molecular target: Neu5Ac(a2-8)Neu5Ac(a2-8)Neu5Ac(a2-3)Gal(b1-4)Glc
# Summary of the method: as §1
# [44] = molecular target: Neu5Ac(a2-8)Neu5Ac(a2-8)Neu5Ac(a2-3)[GalNAc(b1-4)]Gal(b1-4)Glc
# Summary of the method: as §1
# [45] = molecular target: Neu5Ac(a2-8)Neu5Ac(a2-8)Neu5Ac(a2-8)Neu5Ac(a2-3)[GalNAc(b1-4)]Gal(b1-4)Glc
# Summary of the method: as §1
# [46] = molecular target: Neu5Ac(b2-6)Gal(b1-4)GlcNAc
# Summary of the method: as §1
# [47] = molecular target: Neu5Ac(b2-6)GalNAc
# Summary of the method: as §1
# [48] = molecular target: Neu5Ac9Ac(a2-3)Gal(b1-3)GlcNAc
# Summary of the method: as §1
# [49] = molecular target: Neu5Ac9Ac(a2-3)Gal(b1-4)GlcNAc
# Summary of the method: as §1
# [50] = molecular target: Neu5Ac9Ac(a2-6)Gal(b1-4)GlcNAc
# Summary of the method: as §1
# [51] = molecular target: Neu5Gc(a2-3)Gal(b1-3)GlcNAc
# Summary of the method: as §1
# [52] = molecular target: Neu5Gc(a2-3)Gal(b1-3)[Fuc(a1-4)]GlcNAc
# Summary of the method: as §1
# [53] = molecular target: Neu5Gc(a2-3)Gal(b1-4)Glc
# Summary of the method: as §1
# [54] = molecular target: Neu5Gc(a2-3)Gal(b1-4)GlcNAc
# Summary of the method: as §1
# [55] = molecular target: Neu5Gc(a2-3)Gal(b1-4)[Fuc(a1-3)]GlcNAc
# Summary of the method: as §1
# [56] = molecular target: Neu5Gc(a2-6)Gal(b1-4)GlcNAc
# Summary of the method: as §1
# [57] = molecular target: Neu5Gc(a2-6)GalNAc
# Summary of the method: as §1
# [58] = molecular target: Neu5Gc(b2-6)Gal(b1-4)GlcNAc
# Summary of the method: as §1
binder,measurement,setting,value
B1,glycan array binding signal (z-score),[1],-0.726
same,glycan array binding signal (z-score),[2],-0.592
same,glycan array binding signal (z-score),[3],-0.385
same,glycan array binding signal (z-score),[4],-0.206
same,glycan array binding signal (z-score),[5],-0.579
same,glycan array binding signal (z-score),[6],-0.294
same,glycan array binding signal (z-score),[7],-0.317
same,glycan array binding signal (z-score),[8],-0.44
same,glycan array binding signal (z-score),[9],-0.737
same,glycan array binding signal (z-score),[10],0.446
same,glycan array binding signal (z-score),[11],0.201
same,glycan array binding signal (z-score),[12],-0.177
same,glycan array binding signal (z-score),[13],0.553
same,glycan array binding signal (z-score),[14],-0.496
same,glycan array binding signal (z-score),[15],-0.171
same,glycan array binding signal (z-score),[16],-0.353
same,glycan array binding signal (z-score),[17],-0.15
same,glycan array binding signal (z-score),[18],1.87
same,glycan array binding signal (z-score),[19],0.14
same,glycan array binding signal (z-score),[20],-0.101
same,glycan array binding signal (z-score),[21],-0.595
same,glycan array binding signal (z-score),[22],-0.426
same,glycan array binding signal (z-score),[23],-0.337
same,glycan array binding signal (z-score),[24],-0.33
same,glycan array binding signal (z-score),[25],0.122
same,glycan array binding signal (z-score),[26],0.677
same,glycan array binding signal (z-score),[27],-0.096
same,glycan array binding signal (z-score),[28],0.603
same,glycan array binding signal (z-score),[29],2.63
same,glycan array binding signal (z-score),[30],-0.633
same,glycan array binding signal (z-score),[31],-0.423
same,glycan array binding signal (z-score),[32],-0.762
same,glycan array binding signal (z-score),[33],-0.422
same,glycan array binding signal (z-score),[34],0.246
same,glycan array binding signal (z-score),[35],-0.032
same,glycan array binding signal (z-score),[36],-0.66
same,glycan array binding signal (z-score),[37],0.257
same,glycan array binding signal (z-score),[38],0.503
same,glycan array binding signal (z-score),[39],-0.658
same,glycan array binding signal (z-score),[40],1.46
same,glycan array binding signal (z-score),[41],-0.763
same,glycan array binding signal (z-score),[42],-0.49
same,glycan array binding signal (z-score),[43],-0.488
same,glycan array binding signal (z-score),[44],-0.677
same,glycan array binding signal (z-score),[45],-0.633
same,glycan array binding signal (z-score),[46],-0.44
same,glycan array binding signal (z-score),[47],-0.503
same,glycan array binding signal (z-score),[48],-0.681
same,glycan array binding signal (z-score),[49],-0.482
same,glycan array binding signal (z-score),[50],0.087
same,glycan array binding signal (z-score),[51],-0.351
same,glycan array binding signal (z-score),[52],-0.102
same,glycan array binding signal (z-score),[53],0.538
same,glycan array binding signal (z-score),[54],-0.083
same,glycan array binding signal (z-score),[55],0.35
same,glycan array binding signal (z-score),[56],-0.388
same,glycan array binding signal (z-score),[57],-0.469
same,glycan array binding signal (z-score),[58],-0.654
